From PubChem BioAssay AID1963960 (Molecular Pharmacology Branch, DTP, NCI, 2024)
For part of its entries the source gives two or more results. The list is limited to them. The source may hold further records. Values given together are repeated measurements across runs, samples, wells, individuals or studies.

Test system: MDA-MB-468 spheroids with HUVEC/MSC, viability
Test: Anticancer human tumor MDA-MB-468 cell line growth inhibition [PI3K];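 note: spheroids exposed to agents for seven days before readout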;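 for viability, T/C: 100% = DMSO vehicle control viability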
Details: for viability, T/C: stronger effect = lower value; for IC50: compound alone
Source text: Combinatorial screen of targeted agents with the PI3K inhibitors inavolisib, alpelisib, duvelisib, and copanlisib in multi-cell type tumor spheroids
A high-throughput screen of multi-cell type tumor spheroids was designed to identify active combinations of targeted small molecules and PI3K pathway inhibitors. Complex spheroids include a stromal component modeled by human endothelial cells (HUVEC) and fibroblasts modeled by human mesenchymal stem cells (MSCs). The concentration ranges selected for each drug and investigational agent were based upon clinically achievable concentrations if the clinical Cmax of the agent was known.
Compounds. The drugs and investigational agents: inavolisib (NSC800729), alpelisib (NSC765974), duvelisib (NSC772469), copanlisib (NSC816437), ipatasertib (NSC767898), afuresertib (NSC778305), talazoparib (NSC767125), sapanisertib (NSC764658), selumetinib (NSC741078), tovorafenib (DAY101, NSC766906), vemurafenib (NSC761431), ravoxertinib (NSC781343), sotorasib (NSC818433), MRTX1133 (NSC 836407), abemaciclib (NSC 768073), palbociclib (NSC758247), venetoclax (NSC 766270), SY5609 (NSC837396), enzalutamide (NSC755605), and darolutamide (NSC825331), were obtained from the National Cancer Institute (NCI) Developmental Therapeutics Program Chemical Repository. The FDA-approved anticancer drug set is available from the NCI Developmental Therapeutics Program. […] The stock solutions were prepared in dimethyl sulfoxide (DMSO, Sigma-Aldrich, St. Louis, MO, cat. D2650) at 800-fold the tested concentration and stored at -70 degrees C prior to their use. All drugs and investigational agents were tested over a range starting from a high concentration at or near the clinical Cmax and decreasing in half-log increments. If the clinical Cmax for an agent had not been determined, the highest concentration tested was 10 microM.
Cell Culture. All cells were maintained in an incubator at 37 degrees C and 5% CO2 with 95% humidity. The PDC lines were cultured according to standard operating procedures established by the NCI PDMR (https://pdmr.cancer.gov/sops/default.htm). All PDCs were thawed and cultured in Matrigel-coated flasks prepared with a working solution of 1X Ham's F-12 nutrient mix, without supplementation (Invitrogen, Waltham, MA, cat. 11765054), 100 U/mL penicillin-streptomycin (Invitrogen, cat. 15140122), and 2.5% Matrigel (Corning Inc., Corning, NY, cat. 354248) for the first three passages. The 354836-022-R-J1-PDC, 475296-252-R-J1-PDC, and 997726-040-R-J2-PDC lines were cultured in 6A media, which includes advanced DMEM/F-12 (Thermo Fisher Scientific, cat. 12634028), 10 mM HEPES (Thermo Fisher Scientific, cat. 15630080), 1X GlutaMAX supplement (Thermo Fisher Scientific, cat. 35050061), 0.1 mg/mL primocin (InvivoGen, San Diego, CA, cat. ant-pm-2), 10% defined fetal bovine serum, heat inactivated (HyClone Laboratories Inc., Logan, UT, cat. SH30070.03HI), 50% L-WRN conditioned media (ATCC, cat. CRL-3276), 1.25 mM N-Acetyl-L-cysteine (Sigma-Aldrich, cat. A9165), 10 mM nicotinamide (Sigma-Aldrich, cat. N0636), 1X B-27 supplement (Thermo Fisher Scientific, cat. 17504044), 1X N-2 supplement (Thermo Fisher Scientific, cat. 17502048), and 10 microM Y-27632 dihydrochloride (Tocris Bioscience, Bristol, United Kingdom, cat. 1254). The 624824-186-R-J2-PDC line was cultured in 6C/Colon 1B media, which includes all 6A media components plus 50 ng/mL human EGF recombinant protein (Thermo Fisher Scientific, cat. PHG0311). […]

For `CCN1CCN(Cc2ccc(Nc3ncc(F)c(-c4cc(F)c5nc(C)n(C(C)C)c5c4)n3)nc2)CC1`, which viability, T/C (compound alone 0.01 µM) is on record?
Its viability, T/C is 94.5, 115, 79.9, 95.6%.

And the viability, T/C (compound alone 0.1 µM)?
Its viability, T/C is 89.8, 105, 79.6, 93.6%.

Which results are given for `CCCS(=O)(=O)Nc1ccc(F)c(C(=O)c2c[nH]c3ncc(-c4ccc(Cl)cc4)cc23)c1F`?
viability, T/C (compound alone 0.0316 µM): 72.2, 97.3, 91.2, 85%; viability, T/C (compound alone 0.1 µM): 114, 109, 88.2, 94.9%

How did the viability, T/C (compound alone 0.001 µM) turn out when `CC(C)n1nc(-c2ccc3oc(N)nc3c2)c2c(N)ncnc21` was run?
The viability, T/C was 114, 99.6, 85.9, 99.5%.

For `C#Cc1c(F)ccc2cc(O)cc(-c3ncc4c(N5CC6CCC(C5)N6)nc(OCC56CCCN5CC(F)C6)nc4c3F)c12` (configuration not stated), which viability, T/C (compound alone 3.16 µM) is on record?
Its viability, T/C is 118, 89.3, 98, 86%.

Which results are given for `Cn1nccc1Nc1nccc(-c2ccn(C(CO)c3ccc(Cl)c(F)c3)c(=O)c2)n1` (configuration not stated)?
viability, T/C (compound alone 1 µM): 100, 102, 75.3, 80.9%; viability, T/C (compound alone 3.16 µM): 92.7, 104, 79.8, 71.7%

Which results are given for `CC1(C)CCC(CN2CCN(c3ccc(C(=O)NS(=O)(=O)c4ccc(NCC5CCOCC5)c([N+](=O)[O-])c4)c(Oc4cnc5[nH]ccc5c4)c3)CC2)=C(c2ccc(Cl)cc2)C1`?
IC50: 5.52 µM, 4.62 µM, 4.86 µM, > 10 µM; viability, T/C (compound alone 10 µM): 7.89, 9.58, 15.9, 81.9%

How did the IC50 (run of 05/08/2023) turn out when `Cc1nc(NC(=O)N2CCCC2C(N)=O)sc1-c1ccnc(C(C)(C)C(F)(F)F)c1` (configuration not stated) was run?
The IC50 was 7.6 µM, 7.44 µM, 7.85 µM, 7.07 µM, 6.75 µM, > 10 µM, 8.5 µM.

How did the viability, T/C (compound alone 0.316 µM) turn out when `CC(C)NCC(C(=O)N1CCN(c2ncnc3c2C(C)CC3O)CC1)c1ccc(Cl)cc1` (configuration not stated) was run?
Its viability, T/C is 56.4, 74, 78.2, 83.1%.

With `C=CC(=O)N1CCN(c2nc(=O)n(-c3c(C)ccnc3C(C)C)c3nc(-c4c(O)cccc4F)c(F)cc23)C(C)C1` (configuration not stated) as the molecule, how does the viability, T/C (compound alone 0.316 µM) read?
Its viability, T/C is 84, 89.6, 102, 115%.

What does the source list for `C[C@@H](NC(=O)c1ncnc(N)c1Cl)c1ncc(C(=O)Nc2cc(C(F)(F)F)c(Cl)cn2)s1`?
viability, T/C (compound alone 0.316 µM): 97.2, 114, 119, 93.2%; viability, T/C (compound alone 3.16 µM): 78.1, 106, 96.2, 78%; viability, T/C (compound alone 10 µM): 81.5, 101, 113, 78.3%

`CC(Cn1ccc(-c2ccc(C#N)c(Cl)c2)n1)NC(=O)c1cc(C(C)O)[nH]n1` (configuration not stated) was tested. Which viability, T/C (compound alone 10 µM) did it give?
The viability, T/C was 59.6, 86.8, 80.5, 83.5%.
